Laboratory results reported in the supplement of paper PMC4166925.
± gives the standard deviation of the averaged measurements. In all, about 33,000 sequences were measured (“E-score (dimensionless, -0.5 to 0.5)”: median about -0.049, highest 2% from about 0.37 on). The list shows a part of the results.

These sequences were tested on T1, PmTbr T-box DNA-binding domain (GST fusion) (assay: PBM E-score of 8-mer (E-score (dimensionless, -0.5 to 0.5)); Tbr is Tbrain of the sea star Patiria miniata (Pm) or the sea urchin Strongylocentrotus purpuratus (Sp); higher = stronger binding preference; most listed sequences are background and not binding sites). Conditions: the construct has about 5 more residues each side.
T1 sequence: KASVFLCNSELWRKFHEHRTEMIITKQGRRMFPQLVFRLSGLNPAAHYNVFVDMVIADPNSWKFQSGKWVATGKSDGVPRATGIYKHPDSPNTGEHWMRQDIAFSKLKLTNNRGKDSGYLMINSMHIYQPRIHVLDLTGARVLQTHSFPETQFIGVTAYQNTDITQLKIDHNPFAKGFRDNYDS
Description: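 Universal protein-binding microarray (Agilent AMADID 016060, 60-bp probes with a 35-bp variable region) incubated with 200 nM GST-fused Patiria miniata Tbr T-box DNA-binding domain (residues 272-466) in PBS pH 7.5. Scored for every ungapped 8-mer (given with its reverse complement) by the Universal PBM Analysis Suite as E-score (modified Wilcoxon-Mann-Whitney enrichment, range -0.5 to 0.5; >0.45 counts as bound) and Z-score of median probe intensity. Two replicate arrays (datasets 1 and 2).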
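Note: 200 nM protein in PBS on universal arrays averaged over duplicate arrays.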

| Sequence | PBM E-score of 8-mer |
| --- | --- |
| ACGTGGGA | 0.141 ± 0.018 |
| AGGCTATC | -0.0954 ± 0.03 |
| AGAGGTTA | -0.0801 ± 0.022 |
| AATCACCG | 0.0811 ± 0.036 |
| AATAGGAA | -0.191 ± 0.036 |
| TGCCGAAA | 0.161 ± 0.01 |
| CCGCTATA | 0.106 ± 0.078 |
| GTAGCCAA | -0.113 ± 0.016 |
| CCAGAGAG | -0.146 ± 0.063 |
| CGCTGGCC | -0.166 ± 0.0028 |
| CGAGAGTA | 0.0479 ± 0.055 |
| AGCAGCTG | 0.133 ± 0.0056 |
| AGTATAAG | -0.0609 ± 0.081 |
| CGACAGTC | 0.163 ± 0.04 |
| GTAGGCGA | 0.085 ± 0.03 |
| AAACCGTT | 0.0978 ± 0.04 |
| ATAAGATA | -0.215 ± 0.052 |
| CAGTGTGC | 0.0644 ± 0.04 |
| ACACTCCG | 0.3818 ± 0.0019 |
| CAGAGTGA | -0.0102 ± 0.038 |
| AGGATGGC | -0.00084 ± 0.054 |
| CTCATTGA | 0.103 ± 0.074 |
| AAGACCAC | -0.0744 ± 0.025 |
| AACTCGAT | -0.0662 ± 0.057 |
| CGATAACG | 0.148 ± 0.034 |

| Sequence | PBM E-score of 8-mer |
| --- | --- |
| ACCAAAAT | 0.032 ± 0.06 |
| CATGCATC | -0.167 ± 0.031 |
| CTCAAGTA | 0.061 ± 0.086 |
| ACCCCCCC | -0.264 ± 0.015 |
| ACCCCGGC | 0.0962 ± 0.055 |
| CAGATACA | 0.0286 ± 0.039 |
| AGGCCAGC | -0.195 ± 0.0041 |
| GATAACGC | 0.246 ± 0.0034 |
| CCTGCGGA | 0.0101 ± 0.014 |
| TAGGTACA | -0.243 ± 0.019 |
| CAACATCA | 0.0511 ± 0.053 |
| CGCTGCCA | 0.173 ± 0.0071 |
| ACGTTTAT | -0.0132 ± 0.022 |
| AGCAGACG | 0.00804 ± 0.011 |
| GTCTTTGA | -0.167 ± 0.02 |
| CCACGATC | 0.00487 ± 0.013 |
| GATGAGGA | -0.1802 ± 0.0013 |
| AGGCGTTC | 0.0817 ± 0.053 |
| ATTCGAGC | -0.1667 ± 0.00059 |
| GTATGAAA | -0.19 ± 0.032 |
| TATAGACA | -0.131 ± 0.012 |
| GGATTGAA | -0.13 ± 0.024 |
| GGGGGTAA | -0.162 ± 0.1 |
| ACAGGGTA | -0.172 ± 0.0098 |
| GGGGGGGA | -0.22 ± 0.043 |

| Sequence | PBM E-score of 8-mer |
| --- | --- |
| AAGTAACG | 0.0201 ± 0.024 |
| AAGTTAGT | -0.103 ± 0.021 |
| GGGGACAA | -0.106 ± 0.041 |
| CACGAGTA | -0.111 ± 0.046 |
| AACTACTG | -0.0906 ± 0.028 |
| GAATACGA | -0.0345 ± 0.0053 |
| TCACATGA | 0.085 ± 0.012 |
| ATGGATAG | -0.237 ± 0.045 |
| ATAGACAA | -0.196 ± 0.0023 |
| AGTTGCGC | 0.0703 ± 0.035 |
| AACAGGGT | -0.0372 ± 0.006 |
| CCCCTGCC | -0.321 ± 0.078 |
| AAAAGGGT | -0.144 ± 0.075 |
| TCGGATAA | -0.149 ± 0.058 |
| TCTTATAA | -0.0434 ± 0.07 |
| ATCGCCGA | 0.0247 ± 0.019 |
| AGTCCCCA | -0.202 ± 0.08 |
| CGGTCAGA | -0.204 ± 0.0038 |
| CGCGTAAC | 0.102 ± 0.012 |
| ATTAAAGC | -0.183 ± 0.026 |
| CAGCGCTC | -0.116 ± 0.041 |
| TCACTCCA | 0.14 ± 0.0044 |
| CTTCGCGA | 0.277 ± 0.011 |
| CGTTATAA | 0.051 ± 0.077 |
| TCAGGTAA | 0.035 ± 0.03 |

| Sequence | PBM E-score of 8-mer |
| --- | --- |
| AGCAGTTC | -0.00504 ± 0.017 |
| AAATGGAC | -0.0943 ± 0.019 |
| AGGCCATC | -0.336 ± 0.035 |
| ATCAGCCA | -0.0439 ± 0.0057 |
| TACGGGGA | -0.063 ± 0.011 |
| AGACTGTG | 0.0764 ± 0.054 |
| CTAATGTC | 0.0957 ± 0.014 |
| ATATCCGC | -0.0252 ± 0.0053 |
| CAAAAAGG | 0.0395 ± 0.033 |
| AGTTGTTC | -0.04 ± 0.043 |
| GTACGGAA | -0.0981 ± 0.021 |
| ATATCGGA | 0.00895 ± 0.0044 |
| CAGCCTGG | -0.00531 ± 0.032 |
| CTCCTACC | -0.141 ± 0.046 |
| TACCCGTA | -0.193 ± 0.13 |
| CTCCATTC | -0.243 ± 0.042 |
| CACAGTAC | -0.0516 ± 0.046 |
| CTACGGTC | -0.289 ± 0.012 |
| AAATCATT | -0.12 ± 0.05 |
| CCCTTTTC | -0.0658 ± 0.04 |
| AGAATCCC | -0.159 ± 0.059 |
| CTCGGGGC | -0.133 ± 0.042 |
| ATTGCTCC | -0.0474 ± 0.052 |
| CACAACAC | 0.387 ± 0.02 |
| CAGTCCGG | -0.307 ± 0.0042 |

| Sequence | PBM E-score of 8-mer |
| --- | --- |
| CATAGGCG | 0.173 ± 0.015 |
| TACACCTA | 0.371 ± 0.026 |
| GTATAGCA | 0.0288 ± 0.024 |
| CCTTCCAA | -0.197 ± 0.062 |
| GGGCAAAA | -0.0896 ± 0.025 |
| ACGGGCAT | -0.225 ± 0.076 |
| GCAGGGAC | -0.209 ± 0.0062 |
| GAACGCTA | 0.0135 ± 0.049 |
| GCTAGAGC | -0.058 ± 0.098 |
| CCGGTGCC | -0.127 ± 0.01 |
| AACCCGGA | -0.17 ± 0.016 |
| ATGCCATC | -0.169 ± 0.017 |
| ACCTAGCC | 0.00247 ± 0.015 |
| AGGCTGTG | 0.0477 ± 0.095 |
| GTTCAGTA | -0.187 ± 0.053 |
| ACGCGGTA | 0.199 ± 0.0081 |
| GCATATAC | -0.081 ± 0.0014 |
| AACAGACC | -0.0784 ± 0.076 |
| CAACTCTG | 0.16 ± 0.08 |
| CTCGGATC | -0.166 ± 0.023 |
| CGTTATCC | -0.058 ± 0.009 |
| CCTGACCG | -0.0873 ± 0.02 |
| AAAGATTT | -0.0448 ± 0.019 |
| CATTCGCC | -0.0177 ± 0.044 |
| CCCAAAAA | -0.143 ± 0.014 |

| Sequence | PBM E-score of 8-mer |
| --- | --- |
| TAATCGTA | -0.114 ± 0.092 |
| AGAGGATC | -0.395 ± 0.011 |
| TCCTGAGA | -0.138 ± 0.031 |
| AAGTAATA | -0.192 ± 0.063 |
| ACCTAATG | 0.0898 ± 0.0038 |
| CCGCCTAC | -0.126 ± 0.028 |
| GCACACAC | 0.219 ± 0.039 |
| GTCCACAA | 0.03973 ± 0.00023 |
| CCAAGAAC | -0.112 ± 0.002 |
| AGTTCAAT | 0.00694 ± 0.04 |
| TTAGCTAA | 0.0454 ± 0.0036 |
| ACTACAAA | -0.0762 ± 0.1 |
| ATTGCGTG | 0.0323 ± 0.0015 |
| ACGATCCG | -0.0368 ± 0.073 |
| ACCACAAG | 0.0391 ± 0.13 |
| CGGTCCGC | 0.014 ± 0.065 |
| ATGTCGAG | 0.0375 ± 0.013 |
| GGTCGAGA | -0.252 ± 0.058 |
| CACCTACA | 0.407 ± 0.013 |
| ATTAGATC | -0.277 ± 0.047 |
| GCAAGCTA | -0.088 ± 0.0098 |
| AACTGACT | -0.179 ± 0.03 |
| GCGTACAC | -0.0608 ± 0.033 |
| ATCGGATG | -0.0868 ± 0.012 |
| CTTGCAGC | 0.0487 ± 0.012 |

| Sequence | PBM E-score of 8-mer |
| --- | --- |
| AACGTAAG | -0.0227 ± 0.11 |
| GATTCTGA | -0.148 ± 0.03 |
| ATCTTTAC | -0.189 ± 0.0031 |
| CAATACTG | -0.151 ± 0.016 |
| ACTCTACT | 0.0128 ± 0.024 |
| ACGACGAA | 0.0979 ± 0.0076 |
| AGAGAAGA | -0.186 ± 0.04 |
| CCCCCAGA | -0.116 ± 0.043 |
| TTGAAAAA | -0.0733 ± 0.07 |
| AAAGTCTT | -0.174 ± 0.002 |
| AACTTATG | -0.216 ± 0.013 |
| CGTAATTC | -0.193 ± 0.014 |
| ATTGCGTC | -0.231 ± 0.099 |
| CACCCAAC | 0.255 ± 0.025 |
| ACTTGCAG | 0.211 ± 0.0046 |
| CTTAACCC | -0.0938 ± 0.018 |
| ATAAGCTA | -0.0827 ± 0.085 |
| CGCCAGTC | 0.0298 ± 0.11 |
| ACCTACTC | -0.0258 ± 0.091 |
| AGCCGGCC | -0.157 ± 0.0064 |
| AAGCTTGA | -0.0925 ± 0.025 |
| AAGTCAGA | -0.144 ± 0.0029 |
